This passage reports survival results from PubChem BioAssay AID463173 (ICCB-Longwood Screening Facility, Harvard Medical School, 2010).

The structures appear in SMILES notation. In all, about 52,000 compounds went through this assay and about 1,700 (3.3%) were called active. Cut-off read from the data, not from the text of the source: active = survival mostly below about 52% (no sharp cut-off); inactive = mostly above about 56%. The list shows a part of the results.

The subject of the assay is Wild type. Kind of assay: growth inhibition of S. aureus wild type versus tarO mutant, primary screen, teichoic acid synthesis inhibitors, RN4220, OD600 (AID 463173). The settings on record: S. aureus RN4220 wild type/DeltatarO growth, OD600, 18 h, active compounds read low, screened at 18.75 µg/mL (by protocol).
Take `COC(=O)c1c(NC(=O)c2cc3nc(-c4ccc(Br)cc4)cc(C(F)(F)F)n3n2)sc2c1CCCC2`: the survival was inactive: 82%.

In the case of `COc1ccc(OC)c(NC(=O)N2CCC(N3CCN(Cc4ccc(F)cc4)C(=O)C3=O)CC2)c1`, the survival is inactive: 72%.

For `CCc1ccc(Nc2cc(C(=O)NCCCN(C)c3ccccc3)c3ccccc3n2)cc1`, the survival is inactive: 84%.

As to `COc1ccc(-c2cc(C(F)(F)F)nc(SCCC(=O)Nc3cccc(O)c3)n2)cc1`, the survival was inactive: 80%.

Turning to `Cc1cc(=O)n(CC(=O)Nc2cccc([N+](=O)[O-])c2)c(-n2nc(C)cc2C)n1`, the survival is inactive: 78%.

For `CC(NC(=O)c1ccc2nc(Cc3ccccc3)oc2c1)c1ccccc1` (stereo not given), the survival was inactive: 78%.

As for `O=C(c1ccco1)c1cn(CC(=O)N2CCc3ccccc3C2)c2ccccc12`, the survival was inactive: 129%.

`COc1ccc(NC(=O)Cn2cc(C(=O)C3CCCCC3)c3ccccc32)cc1`: the survival is inactive: 79%.

Consider `Cc1c(Cl)cccc1NC(=O)C(=O)NCC(c1cccnc1)N1CCN(c2ccccc2)CC1` (stereo not given), for which the survival is inactive: 85%.

Take `CCNC(=O)C1CCN(S(=O)(=O)c2ccc(C)cc2)CC1`: the survival is inactive: 117%.

For `O=C(C1CCN(S(=O)(=O)Cc2ccccc2)CC1)N1CCN(c2ccccc2F)CC1`, the survival was inactive: 85%.

For the molecule `CCc1ccccc1NC(=O)C(C)n1nc(-c2ccc(C)c(C)c2)ccc1=O` (stereo not given), the survival was inactive: 86%.

On to `Cc1cccc(Cn2cc(C(=O)Nc3ccc(S(N)(=O)=O)cc3)ccc2=O)c1`, for which the survival is inactive: 78%.

In the case of `COc1ccc(Cl)cc1NC(=O)N1CCC(CN2CCCCCC2)CC1`, the survival is inactive: 55%.

For the molecule `Cc1ccc(C)c(Nc2nc3nonc3nc2Nc2cccc(C)c2C)c1`, the survival was active: 4%.

`CC1=C(C(=O)OCC2CCCCC2)C(c2ccc(Cl)cc2Cl)CC(=O)N1` (stereo not given): the survival is inactive: 82%.

Regarding `CSc1cccc(NC(=O)Cn2cnc(S(=O)(=O)N3CCCC3)c2)c1`, the survival is inactive: 71%.

Take `O=C(Nc1ccccc1OCc1cc(=O)n2ccccc2n1)c1ccccc1F`: the survival was inactive: 51%.

In the case of `CCCn1c2ccccc2c2cnn(CC(=O)NCc3cc(OC)ccc3OC)c(=O)c21`, the survival was inactive: 124%.

As to `CCCCNC(=O)CN1C(=O)COc2ccc(S(=O)(=O)N3CCCC3)cc21`, the survival is inactive: 79%.

As for `COc1ccc(CNC(=O)CN2C(=O)CSc3ccc(S(=O)(=O)N4CCCC4)cc32)cc1`, the survival was inactive: 94%.

Consider `CCOC(=O)c1cccc(NC(=O)C(Cc2ccccc2)NS(=O)(=O)c2cccc3nsnc23)c1` (stereo not given), for which the survival is inactive: 93%.

For the molecule `CCC(=O)Nc1ccc(NC(=O)c2ccc(F)cc2)nc1`, the survival was inactive: 103%.

With `COc1ccc(CNC(=O)C(=O)NCC(c2ccco2)S(=O)(=O)c2ccc(C)cc2)cc1` (stereo not given), the survival was inactive: 136%.

Consider `COC(=O)c1ccc(Cn2nnc3sc4c(c3c2=O)CCCC4)cc1`, for which the survival was inactive: 77%.

As for `COc1cc2nc(Nc3ccc(F)cc3)nc(N)c2cc1OC`, the survival was inactive: 87%.

On to `CCc1ccccc1OCCSc1nnc(-c2cc(OC)c(OC)c(OC)c2)o1`, for which the survival was inactive: 118%.

With `CCC1SC(NC(=O)COc2ccc(OC)cc2)=NC1=O` (stereo not given), the survival was inactive: 100%.

With `COc1ccc(NC(=O)CN(C)S(=O)(=O)c2cccc3nsnc23)cc1`, the survival was inactive: 79%.

`CC(C)Oc1ccc(CSCCN)cc1`: the survival is inactive: 105%.

For the molecule `Cc1cc(S(=O)(=O)NCC(c2ccc(N(C)C)cc2)N2CCOCC2)ccc1F` (stereo not given), the survival is inactive: 82%.

Take `O=C(CSC1=Nc2ccccc2N=C(c2ccc(F)cc2)C1)NCc1ccc(Cl)cc1`: the survival was inactive: 75%.

On to `CCN(CC)c1ccc(NC(=O)c2cc3c(=O)n4cccc(C)c4nc3n2C)c(C)c1`, for which the survival is inactive: 94%.

In the case of `CCCCCNC(=O)CCn1c(=O)[nH]c2ccccc2c1=O`, the survival is inactive: 140%.

Consider `CCn1nc(C)c2c(-c3ccccc3)cc(=O)n(C(C)C(=O)NCc3ccc(C)cc3)c21` (stereo not given), for which the survival is inactive: 127%.

Turning to `CC(=O)c1ccc(NC(=O)c2nc3ccccc3n(C)c2=O)cc1`, the survival is inactive: 74%.

`COc1ccc(/C=C/c2nc3ccccc3c(=O)n2-c2cccc(C(F)(F)F)c2)cc1`: the survival is inactive: 65%.

In the case of `O=S1(=O)CCC(N=Cc2ccc(-c3ccc(Br)cc3)o2)C1` (stereo not given), the survival is inactive: 113%.

Consider `C=CCN(CC=C)C(=O)CCN1C(=O)c2ccccc2C1=O`, for which the survival was inactive: 112%.

With `Cc1ccc(CN(C(=O)COc2ccc(Cl)cc2Cl)C2CCS(=O)(=O)C2)o1` (stereo not given), the survival is inactive: 89%.

`Cc1[nH]c(=O)[nH]c(=O)c1S(=O)(=O)N1CCN(c2cccc(Cl)c2)CC1`: the survival is inactive: 65%.

In the case of `O=C(Nc1cccc(C(F)(F)F)c1)Nc1nnc(N2CCCCC2)s1`, the survival was inactive: 88%.

On to `COc1ccc(S(=O)(=O)Nc2cccc(-c3ccc(N4CCCC4)nn3)c2)cc1OC`, for which the survival was inactive: 87%.

As for `Cc1ccc(C)c(CN2C(=O)CSc3ccc(C(=O)NCCc4ccc(Cl)cc4)cc32)c1`, the survival is inactive: 63%.

Turning to `CCCNC(=O)Cn1nc(-c2ccc(C)c(C)c2)c2cnc3ccc(F)cc3c21`, the survival is inactive: 69%.

As to `Clc1ccc(CNc2cc(-c3ccccc3)nc3nncn23)cc1`, the survival is inactive: 72%.

Consider `CCN(c1ccccc1)S(=O)(=O)c1ccc2[nH]cc(C(=O)NCc3ccc(C)cc3)c(=O)c2c1`, for which the survival was inactive: 127%.

For the molecule `N#Cc1c(Nc2cccc(F)c2)sc(C(=O)c2ccc(Cl)cc2)c1N`, the survival was inactive: 101%.

As for `COc1ccc(N2CC(NC(=O)c3ccc(OC(C)C)cc3)CC2=O)cc1` (stereo not given), the survival was active: -2%.

With `Cc1c(-c2ccc(Cl)cc2)c(=O)oc2c(CN3CCCC3)c(O)ccc12`, the survival was inactive: 85%.

`Cc1ccc(OCC(=O)Nc2ccc3nc(Nc4cccc(Cl)c4)cc(C)c3c2)cc1`: the survival was inactive: 130%.

Turning to `COc1ccc(-c2nc3sc(CCNS(=O)(=O)c4ccc(F)c(C)c4)c(C)n3n2)cc1`, the survival is inactive: 55%.

`COc1ccccc1CNC(=O)CN1C(=O)CCn2nc(-c3ccccc3)cc21`: the survival is inactive: 65%.

For the molecule `Nc1ccc2[nH]c(=O)nc(-c3ccccc3)c2c1`, the survival was inactive: 107%.

On to `COc1nc(OC)nc(N2CCC(C(=O)NC3CCCCCC3)CC2)n1`, for which the survival was inactive: 110%.

With `COc1ccc(N(C(=O)COc2ccccc2OC)S(=O)(=O)c2ccc(Cl)cc2)cc1`, the survival was inactive: 62%.

In the case of `O=C(c1ccccc1)n1nc(-c2ccco2)nc1NCc1ccccc1Cl`, the survival was inactive: 106%.

`CCc1ccccc1NC(=O)Nc1cc(C(=O)NCc2ccc(OC)cc2)ccc1N1CCCC1`: the survival is inactive: 128%.

`Cc1noc(C)c1S(=O)(=O)N1CCCC(C(=O)Nc2ccc(C(C)C)cc2)C1` (stereo not given): the survival was inactive: 90%.

For `COc1cccc(-n2cc(C(=O)Nc3cc(C)c(Cl)cc3OC)c3ccccc3c2=O)c1`, the survival is inactive: 83%.

`CCOc1ccc(CCNC(=O)C2CCC(CNS(=O)(=O)c3ccc(Cl)cc3)CC2)cc1OCC` (stereo not given): the survival was inactive: 87%.

In the case of `CCC1(CO)COC(c2ccco2)OC1` (stereo not given), the survival is inactive: 106%.

With `CCOc1ccc(CNC(=O)C2CCN(c3nn4c(=O)cc(C)nc4s3)CC2)cc1`, the survival was inactive: 87%.

On to `Cc1ccccc1C(=O)NN1C(=O)c2ccccc2C1=O`, for which the survival was inactive: 103%.

Regarding `CCOCCCNC(=O)c1cc2c(=O)[nH]c3ccccc3c2n1C`, the survival is inactive: 125%.

As to `O=C(CCCn1ccc2cc(S(=O)(=O)N3CCCC3)ccc21)NCc1ccc(Cl)cc1`, the survival is inactive: 70%.

`CC1CC(=O)N(CC(=O)Nc2ccc(F)cc2F)c2ccccc2S1` (stereo not given): the survival is inactive: 84%.

`Cc1c(-c2ccccc2)c(=O)oc2c(CN3CCCC3)c(O)ccc12`: the survival was inactive: 113%.

As for `CCc1ccc(C2CC(=O)NC(NC(=O)c3ccc(C(C)(C)C)cc3)=N2)cc1` (stereo not given), the survival is inactive: 59%.

In the case of `CCOc1ccc(/C=C/c2nc(C#N)c(Nc3ccc(OCC)cc3)o2)cc1`, the survival was inactive: 92%.

`Cn1c(=O)[nH]c(=O)c2c1nc(NCCO)n2CC(O)COc1ccccc1` (stereo not given): the survival was inactive: 149%.

On to `Cc1nc2ccn(Cc3ccccc3)c(=O)c2cc1C(=O)NCc1ccccc1F`, for which the survival was inactive: 99%.

For `CC1(C)Oc2ccc(C(=O)N3CCCC3)cc2N(CC(=O)N2CCCCC2)C1=O`, the survival is inactive: 101%.

On to `CC1CCCN(C(=O)CSc2nnc(COc3ccc(Cl)cc3)n2C)C1` (stereo not given), for which the survival was inactive: 102%.

Regarding `O=C(NCCc1ccc(Cl)cc1)c1ccc2c(c1)N(Cc1ccccc1F)C(=O)c1ccccc1S2(=O)=O`, the survival is inactive: 100%.

As to `COc1ccc(NC(=O)Nc2cccc(-c3cn4cccnc4n3)c2)cc1`, the survival is inactive: 77%.

As to `CCOc1ccc(NC(=O)Cn2c(=O)n(Cc3ccc(C(=O)NCc4ccc(C)cc4)cc3)c(=O)c3ccccc32)cc1`, the survival is inactive: 70%.

`COc1cccc(CNC(=O)CN2C(=O)COc3ccc(S(=O)(=O)N4CCCCCC4)cc32)c1`: the survival is inactive: 89%.

Consider `Cc1ccc(-c2nc3ncccc3o2)cc1NC(=O)c1ccccc1Br`, for which the survival was inactive: 79%.

Take `CCc1cccc(NC(=O)Cn2c(=O)n(CCC(=O)NCC3CCCO3)c(=O)c3cc(OC)c(OC)cc32)c1` (stereo not given): the survival was inactive: 75%.

`Cc1ccc(CSC2=Nc3ccccc3C3=NC(CC(=O)NCc4cccs4)C(=O)N23)cc1` (stereo not given): the survival is inactive: 69%.

Take `O=C(CS(=O)(=O)Cc1ccccc1)Nc1ccc2c(c1)OCO2`: the survival was inactive: 114%.

With `Cc1ccc(CNC(=O)c2cc3c(s2)-c2ccc(Cl)cc2SC3)cc1`, the survival was inactive: 90%.

For `CN(C)c1ccc(NC(=O)CN2CCN(CC(=O)Nc3ccc(Br)cc3)CC2)cc1`, the survival is inactive: 71%.

Consider `O=C(NCCC1=CCCCC1)C1CC(O)CN1C(=O)Nc1ccccc1` (stereo not given), for which the survival is inactive: 98%.

Consider `CCN(C(=O)C1CCCN(c2ncnc3onc(-c4ccc(F)cc4)c23)C1)c1ccccc1` (stereo not given), for which the survival is inactive: 126%.

For `O=C(NC1CCCC1)c1cc(-c2ccccc2)on1`, the survival was inactive: 121%.

In the case of `CC(=O)N1CCN(c2ccccc2N)CC1`, the survival was inactive: 93%.

For `COc1ccc(C(=O)Nc2nnc(S(=O)(=O)N3CCC(C)CC3)s2)cc1OC`, the survival is inactive: 85%.

For `O=C(c1cccc(F)c1)N1CCC(c2c[nH]c3ccccc23)(c2c[nH]c3ccccc23)CC1`, the survival is inactive: 63%.
